Measured values from the supplement of paper PMC12632987.
The full ranking holds about 2,300 sequences; the median of “median log2 fold change of GCK-ALFA target abundance (FLAG IP / Myc IP barcode read proportion)” is about 0.095, and the lowest 2% start at about -0.47. This is one part of the list.

B1: LC3A_28_1288 (protein)
chain: SEIEKNIAEALKEAEKAKKEGKPVVITIKVPSGASEEEIAKVIEGLEKIAEILKDVKDQAIIIDVDSGVAEEHINKLADKAEEIEKKYPNVTVIIALDED
B2: LC3A_13_340 (protein)
chain: TIKLEVTTAEELREKSTAALDANPGEKIEITVTVENEEEAIAIAKELEKIVRKAAEKGSSLNITIKGKRDLVNFVAVEVGAEAYEVLDKTNVTINTEVVP
B3: LC3A_free_46_2416 (protein)
chain: YKVEVEVWTRAAPKEEIDALVERLTKKAREIAEKYGAKVEIKVEYFKEEDGTWSALITITVTVDDEEKAEAIAQELLDEIDKLDEETGLIGLISVEVIKE
B4: LC3A_3_1351 (protein)
chain: MEELIEEAVERLREAGLSEEVIEAAREALEALAEQGHEEAILALTETLLKHKDAPEEDLIEALKNLTEELKANPNLTEEEVLELVKLFDNELAIEPLDEE
B5: LC3A_17_549 (protein)
chain: MEEIKKELEKLLKELEALVKELEKYDPEAAKKLKKKLKEAKKLLEEGKLKEAAETLAEAARELANKLDELEPKHGNEASVLAMEASGLELEAIGLLLKLE
B6: LC3A_free_12_2127 (protein)
chain: SVEEMIEGGAELLVERVELSREAAPEAIRDLIELGDKEAAIEALVAAAEKQGLPDEELLELAKELIDENKMSPEEVERLIEKFRAAGREELAERIAEYAA
B7: LC3A_3_1419 (protein)
chain: LEEEKEELLELLKEAGHSEETLEAVSRLIDLLESRGAEEEALEAIELFRENKDLPSEELLAVAEEVIEALEAGEVTPEEAVELLKELLATARAAAEIIEL
B8: LC3A_45_1963 (protein)
chain: KYEATIDLLVPREDVETVLAAVRATAAALKAEHGDRVQFDLATLEASAAASADEEEVYLRLRITADTKELALDAADRVLEAIEAAVGKPVAAIISVEEVP
B9: LC3A_28_987 (protein)
chain: SETEEAAKEFLERAKKAAKEGKPEVLTLKVSSTTTPEDAKLVAETIKEAGEILKDIKGSAIIIDVESGVKQEHIDLIAKTAEEVEEKTKNVSVIIALDED
B10: LC3A_132_249 (protein)
chain: SEEKLEEALEEIEELLDKVVEALEKGEDYWPLIKELDEAAEEYAEELSLEETEELVERSEEYARELFEKRLDPNDEEARRALDIIEMLLDGVLIEKELKS
B11: LC3A_17_552 (protein)
chain: REELRERLRRLLEELRALVERLEPYDPEAARRLRERLERAEELLEAGRLREAAETLAEAAREAARRAEELEPKYGNEMSVLAMEFNGLELEAIGLLLELD
B12: LC3A_147_396 (protein)
chain: VKLEIDIDLITKDAEEEIIEDIKKLVEELKAKGYEVELEIEVEKLDENTTYISIKITVKAKTKEEAEEARDTIIDHFDEIEEKYKDKILGSLISYEIIEE
B13: LC3A_3_1377 (protein)
chain: GEELLEEAKKILEEQGRSEETKKAALETLKALLEKGYFNAAETLIELLKESEDLSDENLLAFFEDILRAVTEEDISEEELIKLIKEEFEIAKNDEEIEEL
B14: LC3A_3_1524 (protein)
chain: MEEIKKEILELLKEQGADEETLKKAEEALEILEKRGYEKAMKTLLEELKKLKDAPPETIAWFVEEVLRLLLEKDLSEEEVTEEIKRIARTALSASEIEEL
B15: LC3A_17_591 (protein)
chain: SEEIREELERLLKELEALIKEAKKYGIKEAKEVEKLLKEAKKALKEGKLREAAKLLEEAARLLADAFEKKEDELGSEASVLAMEANGLELEAIGILLKLE
B16: LC3A_147_482 (protein)
chain: MEVDIDVLVRDQEAADAFEAFIREKAAELEARGVEVEVEIKREQLSPDEVYIEVRIRIRAETEEEEEAAAQEFVDAIDAFIEENKDRVLAALISIERVEP
B17: LC3A_17_588 (protein)
chain: SEEIKKELEKLAKELKKLIKKAEKYGLEEAKEAEKLLKEAEKYIKEGKLKEAAETLAKAAELLSEAFEKKEEELGEEAELLELEADSIEIEALSILLKLE
B18: LC3A_free_46_2383 (protein)
chain: YKAEIDIDFGAMDKETAEKIAEEIKKAAEEISKKYGVKVEVEVEIIEDEDGNYYLRVKITIEGEDKEKVEEAVNELIEKIDEIAEKANVSYIISVEFIDE
B19: LC3A_127_213 (protein)
chain: EEKELLEEALKIAEEAEKAVDKIPEEGEKALEKAKKLLKELIKLLKKVPSLKEAKEDAEQALKLLEKLPELDEADREEALEHISMIISGIIIDIESELDK
B20: LC3A_free_46_2369 (protein)
chain: VKAKIDIDFLVETRELAEELAKELKEALEKIAKEYGVKLKIKVEITENPDGTYSLKIEIELEAEDLETLEKAVNAILDEIDKIAEKYNVSYIISVEIIKE
B21: LC3A_3_1501 (protein)
chain: MEEKLKETEELLKKMGASEEVIELALKALKKLLERGYEEAAETLIELLKEMKDLSNELLKEFLEEVLKLLETTDLDEETIKEKIIEIATITKNEAEIEEL
B22: LC3A_147_391 (protein)
chain: WKVEVLIDILTKDATEEIKKRFKELAEELKKEGYEVELKIKEEQIDEETTYIEIEITIIAETKEDAEKAAQKVLDAVDEMEEELKDKILGSIVSVTIEEA
B23: LC3A_17_566 (protein)
chain: MEEIKKEIEELIKELEELIKILEKYDPEAAKEVKELLEKAKKALEEGNLKEAAEYLAEAFRLAADRFSELSEETNGKFSNEEMLANGLELRAIGIIEKLE
B24: LC3A_45_1938 (protein)
chain: MWLATVLLGVPRELGDEALAAARELLDELEARGGPDLKVDRAALEATYAATRDDDVVLLEVKITHPTEEKALAAADELEERLRARLGPRVAAIIEVEKLP
B25: LC3A_28_1116 (protein)
chain: SVAEEIKKKFEEQVEEMLKSGEEKVIEVEIPGTLSLEEVKELAEYVAEKAGEAAEKIPVSIVIDVDKDVSDESIDVIADIAEKLEKEYPNVNVIIALEER
B26: LC3A_free_46_2399 (protein)
chain: YIGTIDVDALAKTKEDAEAMAKEIEEAARKLAKEYGVEVEIEVEIEEEPDGTVFLNVRITARAPDKETLEAFVNALIDEIEKIAEKYNFSVIISYEIEEA
B27: LC3A_62_2044 (protein)
chain: MYRAEVDVDILAKDEEAAETIAEELKAMLEELKKKDPNIKYEVKLDKENKYVSVKVTYEAETKEEAEAKADEILDAIDELLEKHEDLIEAALISVEFKKL
B28: LC3A_free_46_2390 (protein)
chain: ITGEIDLLLKGATEEQVKELAEAAKKKILELAKEKGINVEIEVEIEKLPDGDYYVNITVKSDSKDKNVVLDILDETEDYIEEKAKELGIKVSSIISVEED
B29: LC3A_3_1736 (protein)
chain: MEEKLKEARERLEKLGFSEEVIEAALEVVKALLEKGFYEAVETLLKELEELKDLPDEILIAMLEDIKRYVETNDVSEEEVIEKIKEEARVARNEAEIEEL

These binders were tested against MAP1LC3A, Q9H492 (assay: median log2 fold change of GCK-ALFA target abundance (FLAG IP / Myc IP barcode read proportion) (log2 ratio); each designed protein is fused to an ALFA-tag nanobody in HEK293 cells to bring the named protein to FLAG-tagged glucokinase (GCK); Myc marks an untargeted standard; higher = target protein stabilised (more abundant)). Conditions: target protein: 3xFLAG-MCP-GCK-ALFA reporter; HEK293 landing pad (RPLP).
How it was run: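 Binders fused to an ALFA nanobody were recombined as a library into HEK293 landing-pad cells, which were induced with 2 μg mL^−1 doxycycline and then transfected to express a FLAG-tagged target and a Myc-tagged standard. After 48 h, circular RNA barcodes recovered by anti-FLAG and anti-Myc immunoprecipitation of lysates were reverse transcribed, amplified and sequenced. Each binder's target abundance is the median log2 ratio of FLAG to Myc barcode read proportions, from barcodes present at ≥10^−7 in both replicates, binders carrying ≥3 barcodes per replicate, a 10^−6 pseudocount and pooled replicates.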

With B1 as the binder, how does the “median log2 fold change” value read?
Its value is 0.258.

With B2 as the binder, how does the “median log2 fold change” value read?
The value was 0.29.

How did the “median log2 fold change” value turn out when B3 was run?
The value was 0.114.

With B4 as the binder, how does the “median log2 fold change” value read?
The value was 0.152.

With B5 as the binder, how does the “median log2 fold change” value read?
The value was 0.207.

Which “median log2 fold change” value does the source give for B6 here?
Its value is 0.321.

B7 was tested. Which “median log2 fold change” value did it give?
Its value is 0.0228.

B8 was tested. Which “median log2 fold change” value did it give?
Its value is 0.184.

B9 was tested. Which “median log2 fold change” value did it give?
The value was 0.0943.

Which “median log2 fold change” value does the source give for B10 here?
Its value is -0.409.

How did the “median log2 fold change” value turn out when B11 was run?
Its value is 0.248.

How did the “median log2 fold change” value turn out when B12 was run?
The value was -0.161.

How did the “median log2 fold change” value turn out when B13 was run?
The value was 0.612.

For B14, which “median log2 fold change” value is on record?
Its value is 0.153.

For B15, which “median log2 fold change” value is on record?
Its value is -0.0708.

Which “median log2 fold change” value does the source give for B16 here?
Its value is -0.0679.

For B17, which “median log2 fold change” value is on record?
The value was 0.0563.

With B18 as the binder, how does the “median log2 fold change” value read?
Its value is 0.115.

How did the “median log2 fold change” value turn out when B19 was run?
The value was -0.0927.

With B20 as the binder, how does the “median log2 fold change” value read?
Its value is -0.376.

Which “median log2 fold change” value does the source give for B21 here?
The value was 0.286.

How did the “median log2 fold change” value turn out when B22 was run?
Its value is -0.0297.

With B23 as the binder, how does the “median log2 fold change” value read?
The value was 0.102.

For B24, which “median log2 fold change” value is on record?
Its value is -0.182.

Which “median log2 fold change” value does the source give for B25 here?
The value was -0.171.

With B26 as the binder, how does the “median log2 fold change” value read?
The value was -0.0856.

Which “median log2 fold change” value does the source give for B27 here?
The value was -0.21.

For B28, which “median log2 fold change” value is on record?
The value was -0.00124.

With B29 as the binder, how does the “median log2 fold change” value read?
Its value is 0.238.
